# Test results taken from the supplement of paper PMC10126150.
# Sequences with one replicate were seen in a single cluster, so their values are uncertain.
# Tested on: ATP
# Assay: switch fluorescence ratio, 500 uM ATP over buffer (Cy3 cluster intensity, sum of 5 cycles each) (fold (ratio)); higher = stronger signal-on switching upon ATP binding; sequences stand for … in TCGTCGGCAGCGTCAGATGTGTATAAGAGACAGTTTTTTTTTTTTTTTTTTTTTTTTT…TC
# Settings: aptamer strand: ATP DNA aptamer (quencher-CACCTGGGGGAGTATTGCGGAGGAAGG + anchor), 100 nM annealed; ATP concentration: 500 uM; one replicate
# Procedure, shortened: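 Exposure to 500 uM ATP lasted 15 min at 22 °C before imaging, and a selection-buffer image was taken beforehand, for Cy3-labelled switching-strand clusters on a modified Illumina MiSeq flow-cell annealed to 100 nM quencher-labelled ATP aptamer. Five buffer/ATP cycles were run with NaOH stripping and re-annealing between them. The fluorescence ratio per cluster is summed target-cycle over summed buffer-cycle Cy3 intensity, averaged per switch-domain sequence. Clusters outside 100-1000 RFU were excluded.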
row,Sequence,switch fluorescence ratio
1,ATGACACTGT,1.04
2,AGTCCGGTAC,2
3,CGGCGCTCG,1
4,AGATACAACT,0.997
5,AAAAAACCGG,1
6,GGCATTACGT,1.16
7,AATGTACTT,1.1
8,ACCACCAGCG,2.24
9,TCGACCGTCT,1.07
10,GATCGCGGGG,1.04
11,AGGTCGGATT,1
12,TAAGTCGAGA,1.04
13,GCGTTTTCTA,0.981
14,TTCATGCCTA,1.01
15,ATTGGCGCTC,1.01
16,ACACGAGCAG,1.07
17,AATATTTCAG,0.978
18,TAGCTCAGCC,1
19,CAGGTACCTT,1.01
20,CCAGACCAAG,1.02
21,TAGTCGCTGG,1.05
22,TTTGTCCGAA,1.06
23,TTCTGGGACA,1.05

row,Sequence,switch fluorescence ratio
1,TCAAACGCCG,0.944
2,GCCGATGTCT,1
3,TGGTCAAATG,1.02
4,TAGAAAGAGT,0.99
5,GTGTTAGATA,1.04
6,GGTTTTCTAT,0.96
7,TGCATAAGGT,0.981
8,CGCGACGCTA,3.49
9,AACAGCACCT,1.37
10,CACCGTGTCC,1.18
11,AGCACCCCGA,1.17
12,TTTTTCTTT,0.988
13,CAGGCTCGG,0.973
14,TTCGCACTGA,1.12
15,GTTCCGGCGG,1.02
16,GCACTGTAAA,1.06
17,CTGATTACTG,1.01
18,GCTTTCATGA,1.01
19,GTGTGACCTC,0.984
20,CGTCGATTCG,0.954
21,GGACCGGTGT,1.01
22,CGCCGGCAGA,0.993
23,ACAGCGACCT,1.32

row,Sequence,switch fluorescence ratio
1,TATATTTA,1.02
2,CTCACTTTGC,1.08
3,CTGCATGGAC,3.19
4,TGCCTTTAGT,1.03
5,GGGTTAACCA,0.983
6,ACAGCTGGTT,0.957
7,TGCCCGAGG,1.05
8,AGGAGCCAAA,0.966
9,ACACCCTAGT,1.14
10,CATAGAGAAT,0.978
11,CCATCAACAT,1.07
12,AACATCGGTG,0.993
13,CATAGAGTGG,0.962
14,GGAGTTGGCA,1.03
15,ATGTGCCGA,1.12
16,CGAAGGCTTT,1.05
17,TTCTTGGAGG,0.959
18,CGATGACCGG,1.12
19,CTGTGTAGAA,0.993
20,TGAGATTACT,0.953
21,ACGCCAACGG,0.984
22,GAGGTAGGAG,0.985
23,AGGGGCCTTG,1

row,Sequence,switch fluorescence ratio
1,TCAGACGGTT,1.04
2,TAAGGCGGGA,0.961
3,AAGACTAGTG,0.982
4,CTGGATGCAT,1.16
5,CGGATTTCGA,1.03
6,GAGAAGCTTT,0.991
7,TGGGGCGATC,1.06
8,CGCCTAGGAA,0.977
9,TGTAATACAG,1.05
10,TGATTGCTGG,1.03
11,ATCACATGTG,1.02
12,TGTCTACCTT,1.04
13,CGTTAGGTTC,1.02
14,CTTAGCCC,0.993
15,CGGATTTTT,1.02
16,CAAACCTTGA,1.43
17,ATCCGCGGAA,2.32
18,CTGAATATCA,0.991
19,CGGAGACCAA,1.18
20,TTTGTGAGAC,1.2
21,CATCACTGTA,1.18
22,CGGGTTTAGT,1
23,TTCTGGTATG,0.936

row,Sequence,switch fluorescence ratio
1,TGGGAGAGG,0.993
2,AATTAGTCAC,1.04
3,CCCTCAGTCG,1.19
4,AATCATGGCC,0.997
5,CCCGCAGGGA,3.42
6,ATGGGGTCGT,0.954
7,GACACTTATA,1.1
8,CTTCCTGATC,1.19
9,CTGTCCCTGC,0.976
10,CGGCTACCTC,1.14
11,GATGATTGCG,0.988
12,GTTGATTACG,0.973
13,TCTTTATTCA,1.03
14,TCCATGGGTT,0.994
15,AGGCCTCCTT,1
16,ACTGGACCTG,1.01
17,CAGGCATGGG,1.01
18,TCCCACGTCC,1.15
19,CACTTGCTAT,1.07
20,GATTTAGAC,0.993
21,ACTGGAGAGA,1.02
22,ACGCGTCAT,0.968
23,CTTTAGAACT,0.957

row,Sequence,switch fluorescence ratio
1,GAGGAGCCTG,1.02
2,GGTTGCAGAC,1.02
3,GAAATTGCGT,0.98
4,CCATGGGGA,1.01
5,AAGCTCATAG,1.02
6,GGAGACTGG,1.02
7,CAGAAATTTT,1.32
8,ACTGCTCAG,1.02
9,AGCTATAGA,1.04
10,TCGTTAGTTG,0.968
11,AGGGGTCTTG,1.19
12,ATGTGATGGT,0.995
13,ACTTATCGAG,1.02
14,TATTCTCACA,1.01
15,AGGTAGTTCG,1
16,CCGTCTCTTT,0.966
17,GACTCTCTTT,0.973
18,TGGAGCAATC,1.42
19,AATCGTGAGT,0.996
20,ATTTTGGTCT,1.04
21,GGCTCTTTAT,1
22,ATTGGCCTAG,1.01
23,ATTTGGACCG,1.03

row,Sequence,switch fluorescence ratio
1,ACGATACAG,1.34
2,TCCCTATCTA,0.984
3,CCGCATCAAA,5.04
4,TAAAGAAGAC,1.07
5,ATCAACGCCG,1.09
6,GCTGAAAGC,1.01
7,GGTTCCTCGT,1.13
8,TCATAGTTAC,1.06
9,TTGCATTTAG,0.998
10,TAGGGGAGCG,0.975
11,AGGCGGAATG,0.999
12,GTGGCCGCAG,1.05
13,AAGTGCTGA,1.05
14,GCCAGGTTCG,1.01
15,ATAGAGTGGC,0.986
16,AGACTATGAT,1.01
17,GCAGTGAACA,1.01
18,ACCCCGATCA,1.12
19,TCCGGCGCGC,1.43
